# From PMC13083723 (Patterns, 2026)
# The campaign covered roughly 5,400 compounds. About 190 (3.5%) showed an effect of 50% or more. This is one part of the list.
# Tested on: Vero-E6
# Experiment: primary screen, phospholipidosis by LipidTOX staining; higher = more effect of the substance
# Details: 10 µM
# Outline: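 Single-concentration screen at 10 μM, with DMSO 0.1 v/v % and amiodarone 10 μM as controls. Read-out is LipidTOX Red phospholipid staining, which tolerates aldehyde fixation, in Vero-E6 cells.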
row,SMILES,result_ITMP
1,N=C(N)c1ccc(N2CCN(C3CCN(CC(=O)O)CC3)CC2)cc1,-2.17%
2,COc1cc(N2CCC(O)CC2)ccc1Nc1cc(Nc2ccccc2S(=O)(=O)C(C)C)c2cc[nH]c2n1,-2.59%
3,Clc1ccc(C(Cn2ccnc2)OCc2ccsc2Cl)c(Cl)c1 (stereo not shown),5.85%
4,COc1cc(C(=O)N2CCC(N3CCN(C)CC3)CC2)ccc1Nc1ncc2c(n1)N(C)c1ccccc1C(=O)N2C,37.9%
5,CCCC1C(=O)N2C(N(C)C)=Nc3ccc(C)cc3N2C1=O (stereo not shown),-1.18%
6,c1cnc(N2CCN(Cc3ccc4c(c3)OCO4)CC2)nc1,-0.76%
7,COC(=O)/C=C/c1cccc(N(Cc2ccc(-c3ccc(N(C)C)cc3)cc2)C(=O)C2CCCCC2)c1,-5.62%
8,C/C(=C\CNc1ncnc2nc[nH]c12)CO,-1.84%
9,C[C@](N)(Cc1ccc(O)c(O)c1)C(=O)O,-2.15%
10,C[C@@H](Nc1cc(F)cc(F)c1)c1cc(C(=O)N(C)C)cc2c(=O)cc(N3CCOCC3)oc12,14.6%
11,COc1nc2ccc(Br)cc2cc1[C@@H](c1ccccc1)[C@@](O)(CCN(C)C)c1cccc2ccccc12,18.7%
12,CNc1cc2[nH]c(=O)n(-c3ccc(NC(=O)NS(=O)(=O)c4ccc(Cl)s4)cc3)c(=O)c2cc1F,-3.3%
13,CC(C)=CCC[C@](C)(O)[C@H]1CC[C@]2(C)[C@@H]1[C@H](O)C[C@@H]1[C@@]3(C)CC[C@H](O)C(C)(C)[C@@H]3CC[C@]12C,-1.69%
14,Cc1c(C(=O)NN2CCCCC2)nn(-c2ccc(Cl)cc2Cl)c1-c1ccc(Cl)cc1,4.52%
15,CCCC(=O)c1cc(F)ccc1OCC(O)CNC(C)(C)C (stereo not shown),20.3%
16,Cc1ccc(-c2cn3c4c(sc3n2)CCCC4)cc1,-0.74%
17,COc1cc2c(cc1OC)CC(=O)N(CCCN(C)C[C@H]1Cc3cc(OC)c(OC)cc31)CC2,0.57%
18,Cc1[nH]c2ccc(F)cc2c1-c1nc2c3cccnc3c3ncccc3c2[nH]1,-0.42%
19,CS(=O)(=O)c1ccc(-c2cn3ccccc3n2)cc1,-2.12%
20,CCCCCCCCCCCCOCCOCCOCCOCCOCCOCCOCCOCCOCCO,1.36%
21,NS(=O)(=O)NCCNc1nonc1/C(=N\c1ccc(F)c(Br)c1)NO,-3.83%
22,COc1cc(Br)c(S(=O)(=O)Nc2ccc(C(F)(F)F)c(O[C@@H]3CCN(C)C3)c2)cc1OC,2.45%

row,SMILES,result_ITMP
1,Cc1c(-c2ccccc2)oc2c(C(=O)OCCN3CCCCC3)cccc2c1=O,0.89%
2,C[C@H](NCc1ccc(OCc2ccccc2F)cc1)C(N)=O,-0.12%
3,O=C(OC1C[C@@H]2CC3C[C@H](C1)N2CC3=O)c1c[nH]c2ccccc12 (stereo partly shown),-7.26%
4,NCCCC(=O)O,-6.43%
5,Cc1ccc(-c2nn(C(C)(C)C)c3ncnc(N)c23)cc1,-0.98%
6,CCCCCCCCCCCCCCCCCCCCCCO,6.73%
7,COc1ccc(O)cc1,-0.7%
8,CC(C)C[C@@H](C(=O)N[C@H](C(=O)OC1CCCC1)c1ccccc1)[C@H](O)C(=O)NO,-4.02%
9,NC(=O)c1cccc(-c2cc(Nc3ccc(OC(F)(F)F)cc3)ncn2)c1,-4.13%
10,Cc1cc(C)c(CNC(=O)c2cc(-c3ccc(CN4CCOCC4)cc3)cc3c2cnn3C2CCCC2)c(=O)[nH]1,17.1%
11,C=C[C@]1(C)C[C@@H](OC(=O)CS[C@@H]2C[C@H]3CC[C@@H](C2)N3C)[C@]2(C)[C@H](C)CC[C@]3(CCC(=O)[C@H]32)[C@@H](C)[C@@H]1O,12.9%
12,CC/C(=C(\c1ccc(O)cc1)c1ccc(OCCN(C)C)cc1)c1ccccc1,20.4%
13,NC(N)=NC(=O)Cc1c(Cl)cccc1Cl,3.49%
14,Nc1nc(-c2nn(Cc3ccccc3F)c3ncccc23)ncc1C1CC1,0.5%
15,N[C@@H](C(=O)N[C@@H]1C(=O)N2C(C(=O)O)=C(Cl)CC[C@H]12)c1ccccc1,0.05%
16,COc1ccccc1OC(=O)CNC(=O)Cc1ccc(C(=O)c2ccc(C)cc2)n1C,-14%
17,C#Cc1cccc(Nc2ncnc3cc(OCCOC)c(OCCOC)cc23)c1,16.4%
18,COc1ccc(Cn2ccc3ccc(C(=O)NO)cc32)cc1,-1.84%
19,COC(=O)C1=CO[C@@H](O[C@@H]2O[C@H](CO)[C@@H](O)[C@H](O)[C@H]2O)[C@@H]2C(CO)=CC[C@H]12,-3.32%
20,N#Cc1ccc(C2CCCc3cncn32)cc1 (stereo not shown),4.29%
21,OC(CN1CCNCC1)Cn1c2ccc(Br)cc2c2cc(Br)ccc21 (stereo not shown),123%
22,CC(CN(C)C)CN1c2ccccc2Sc2ccccc21 (stereo not shown) [R4A_0005516_001 / SPE_M58473998],17.1%

row,SMILES,result_ITMP
1,CC(C)Nc1cccnc1N1CCN(C(=O)c2cc3cc(NS(C)(=O)=O)ccc3[nH]2)CC1,-1.3%
2,CCOCOC[C@H](C[C@H](C)C(=O)NO)NC(=O)c1ccc(Oc2ccccc2)cc1,-0.6%
3,NS(=O)(=O)c1cc2c(cc1Cl)NC(C(Cl)Cl)NS2(=O)=O (stereo not shown),-3.35%
4,COCC(O)Cn1ccnc1[N+](=O)[O-] (stereo not shown),4.58%
5,NC(=O)c1cnc(N[C@@H]2CCCC[C@@H]2N)nc1Nc1cccc(-n2nccn2)c1,18.8%
6,CCC1OC(=O)CC(O)C(C)C(OC2OC(C)CC(N(C)C)C2O)C(CC=O)CC(C)C(=O)/C=C/C2(C)OC2C1C (stereo not shown),-0.55%
7,CC[C@@](C)(Nc1ccnc(-c2c[nH]c3ncccc23)n1)C(=O)NCC(F)(F)F,-0.82%
8,Cc1nnc(C(C)C)n1[C@@H]1C[C@H]2CC[C@@H](C1)N2CC[C@H](NC(=O)C1CCC(F)(F)CC1)c1ccccc1,0.66%
9,CC1(C)S[C@@H]2[C@H](NC(=O)C(C(=O)[O-])c3ccccc3)C(=O)N2[C@H]1C(=O)[O-] (stereo partly shown),-1.48%
10,COc1cc(C(=S)N2CCOCC2)cc(OC)c1OC,-0.06%
11,Nc1ccccc1S(N)(=O)=O,-10.3%
12,O=C(N[C@H]1CCN(C(=O)c2cc(C(F)(F)F)cc(C(F)(F)F)c2)[C@H](Cc2ccc(Cl)cc2)C1)c1ccnc2ccccc12,-1.02%
13,COc1ccccc1Oc1c(NS(=O)(=O)c2ccc(C(C)(C)C)cc2)nc(-c2ncccn2)nc1OCCO,-4.54%
14,C[N+](C)(C)CC#CCN1CCCC1=O,-1.83%
15,Cc1cc(O)cc2c1O[C@@](C)(CCC[C@@H](C)CCC[C@@H](C)CCCC(C)C)CC2,-8.73%
16,C=CCN1CC[C@@]2(C)c3cc(O)ccc3C[C@H]1[C@H]2C,-0.02%
17,COc1cc2c(Oc3ccc(NC(=O)C4(C(=O)Nc5ccc(F)cc5)CC4)cc3F)ccnc2cc1OCCCN1CCOCC1,80.1%
18,Cc1sc(C)c(C(=O)NC2(c3ccc(C(=O)O)cc3)CC2)c1Cc1ccc(C(F)(F)F)cc1,0.39%
19,COc1cc(N2CCC(N(C)C)CC2)ccc1Nc1ncc(Cl)c(Nc2ccccc2P(C)(C)=O)n1,51.8%
20,Cc1c(OCc2cccc(-c3ccc(C(=O)O)cc3)c2)cc2c(c1C)C(=O)C(C1CCCC1)C2 (stereo not shown),-2.12%
21,CCN(c1nc(N)c(C(=O)NC(=N)N)nc1Cl)C(C)C,-1.36%
22,CC(C)OC(=O)c1cc2c(OCC(O)CNC(C)(C)C)cccc2[nH]1 (stereo not shown),16.4%

row,SMILES,result_ITMP
1,O=S(=O)(Oc1ccc(Cl)cc1)c1ccc(Cl)cc1,-7.57%
2,c1cc(Nc2cc(C3CC3)n[nH]2)nc(Nc2ccc3nc[nH]c3c2)n1,-1.4%
3,CC(C)[N+](C)(CCOC(=O)C1c2ccccc2Oc2ccccc21)C(C)C,-3.69%
4,C[C@H](CSC(=O)c1ccccc1)C(=O)N1C[C@@H](Sc2ccccc2)C[C@H]1C(=O)[O-],-1.35%
5,CNC(=O)COC(=O)NCCC1CCN(c2cccc(C)n2)CC1,-9.4%
6,CC1(N)CCN(c2cnc(-c3cccc(Cl)c3Cl)c(N)n2)CC1,13.6%
7,CN1CCC[C@@H]1Cc1c[nH]c2ccc(CCS(=O)(=O)c3ccccc3)cc12,2.55%
8,Nc1ncnc2[nH]cnc12,-2.75%
9,CCC(=O)OCC(=O)C1(OC(=O)CC)C(C)CC2C3CCC4=CC(=O)C=CC4(C)C3(Cl)C(O)CC21C (stereo not shown),-1.07%
10,C[n+]1c2cc(N)ccc2cc2ccc(N)cc21,25%
11,CC(=O)[C@H]1CC[C@H]2[C@@H]3CCC4C[C@](C)(O)CC[C@]4(C)[C@H]3CC[C@]12C (stereo partly shown),-9.8%
12,O=C(O)CCNC(=O)c1ccccc1,-2.15%
13,O=C(Nc1ccccc1F)N[C@H]1N=C(c2ccccc2)c2ccccc2NC1=O,-0.83%
14,CO[C@H]1/C=C\C=C(/C)C(=O)NC2=CC(=O)C(NCCN(C)C)=C(C[C@@H](C)C[C@H](OC)[C@H](O)[C@@H](C)/C=C(\C)[C@@H]1OC(N)=O)C2=O,-4.72%
15,C=C1/C(=C\C=C2/CCC[C@]3(C)[C@@H]([C@H](C)CCCC(C)C)CC[C@@H]23)C[C@@H](O)C[C@@H]1O,-4.89%
16,CCN(CC)CCOC(=O)c1cc(Cl)c(N)cc1OC,-0.97%
17,CN1CCN(c2cc(-c3ccccc3)nc(N)n2)CC1,5.46%
18,Cc1ccc2c(c1)c1c3n2CCNC3CCC1 (stereo not shown),51.5%
19,CCN(CC)CCNC(=O)c1cc(Cl)c(N)cc1OC,-0.15%
20,COc1ccc(CNC(=O)/C=C/c2ccc3[nH]cc(CCN(C)C)c3c2)cc1,2.83%
21,NCCCNCCCCNCCCN,0.55%
22,CN(C)C/C=C(/c1ccc(Br)cc1)c1cccnc1,15.4%
